# In all, about 44,000 compounds went through this assay and about 340 (0.77%) were called active. Roughly 5% stayed inconclusive and do not appear here. Calls come from the whole dose curve; as a rule, active = well fitted inhibition curve with a large enough effect; inconclusive = small, poorly fitted or top-dose-only effect; inactive = flat fitted curve, though single readings scatter. The list shows a part of the results.
# Assay: Acumen qHTS Assay for Inhibitors of the mTORC1 Signaling Pathway in MEF (Tsc2-/-, p53-/-) Cells: Sytravon;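 note: plate controls were DMSO for no effect and rapamycin for full effect; nearly all actives have a fitted effect of over 50% in size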
# Conditions: phospho-rpS6 immunofluorescence/PI, 24 h; series mostly up to 38.3 µM; activity change, negative = inhibition: at the top concentration
# Method in brief: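 Immunofluorescence of rpS6 phosphorylation in Tsc2-/-, p53-/- MEFs after 24 h compound exposure, normalized to propidium iodide signal. Activity is expressed as % positive cells, thresholded with 7.5 nM rapamycin.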
row,Compound,"activity change, negative = inhibition"
1,COc1ccc(OCCn2nnc3sc4c(c3c2=O)CCCC4)cc1,inactive: -3.52%
2,COc1ccc(N2CCN(c3ncnc4c3nnn4C)CC2)cc1,inactive: -1.17%
3,CCOC(=O)c1c(C)[nH]c(C)c1S(=O)(=O)NCC(=O)NCc1ccccc1C,inactive: 4.28%
4,CCOc1ccccc1CNS(=O)(=O)c1cc(-c2onc(C)c2C)ccc1OC,inactive: -4.03%
5,CCOC(=O)C1CCN(c2ncnc3c2c(-c2ccccc2)cn3-c2ccc(Cl)cc2)CC1,inactive: 6.25%
6,CCC(=O)N1c2ccccc2CC1C(=O)N1CCN(c2ccccc2F)CC1 (stereo not given),inactive: 0%
7,Cc1ccc(NC(=O)Cn2c(=O)n(CCCCC(=O)NCc3ccc4c(c3)OCO4)c(=O)c3ccccc32)cc1,inactive: 1.16%
8,N#Cc1c(C(F)(F)F)cc(-c2cccs2)nc1SCc1ccccc1F,inactive: 3.36%
9,Clc1ccccc1CSc1nc(NCCc2ccccc2)c2ccccc2n1,inactive: -3.46%
10,O=C(CSc1ncc2c(n1)-c1ccccc1N(Cc1ccc(Cl)cc1)S2(=O)=O)c1ccccc1,inactive: -12%
11,CCOc1ccccc1Nc1sc(C(=O)c2ccc(Cl)cc2)c(N)c1S(=O)(=O)c1ccccc1,inactive: 1.2%
12,Cc1cccc(N2CCN(C(=O)c3ccc4c(c3)N(Cc3cccc(Cl)c3)C(=O)c3ccccc3S4(=O)=O)CC2)c1C,inactive: 2.15%
13,CCN(Cc1ccccc1)C(=O)Cn1ncc2c(=O)oc3ccc(C)cc3c21,inactive: 14.6%
14,CCOc1ccc(NC(=O)CCc2nnc3n(C)c(=O)c4sccc4n23)cc1,inactive: 4.62%
15,CCC(C(=O)NC1CCCCC1)n1c(SCc2cccc(F)c2)nc2ccncc21 (stereo not given),inactive: -1.23%
16,COc1ccccc1NC(=O)Cn1ccn(-c2cc(C)cc(C)c2)c(=O)c1=O,inactive: -0.974%
17,CC(CNC(=O)C1CCN(C(=O)c2cc3sccc3n2C)CC1)c1ccccc1 (stereo not given),inactive: -13.5%
18,Cc1ccc(Cl)cc1Nc1nn2c(=O)c3ccc(C(=O)NC(C)c4ccccc4)cc3nc2s1 (stereo not given),inactive: -11.6%
19,Cc1ccc(Cl)cc1N1CCN(C(=O)CCS(=O)(=O)c2ccc3c(c2)oc(=O)n3C)CC1,inactive: -8.17%
20,CCOc1cccc(NC(=O)C2CC(=O)N(C)C(=Nc3ccc(OC)cc3)S2)c1 (stereo not given),inactive: -8.14%
21,Cn1nc(C(=O)NCc2ccccc2)c2c1-c1ccccc1S(=O)(=O)C2,inactive: 6.2%
22,COc1ccccc1CNC(=O)CCc1c(C)nn(-c2ccc(N3CCCCC3)nn2)c1C,inactive: -6.8%
23,CCOc1ccc(-n2c(=O)c3c(C)c(C(=O)N(C)C)sc3n(Cc3cc(C)ccc3C)c2=O)cc1,inactive: 0.652%
24,Cc1ccc(S(=O)(=O)C(CNC(=O)C(=O)NCc2ccc(Cl)cc2)c2ccco2)cc1 (stereo not given),inactive: -13.8%

row,Compound,"activity change, negative = inhibition"
1,CN(C(=O)CSc1nc2ccccc2n1Cc1ccccc1C#N)c1ccccc1,inactive: 5.33%
2,O=c1c2sc3ccccc3c2n(Cc2ccc(F)cc2Cl)c(=O)n1Cc1ccccc1,inactive: 0.393%
3,CCOc1ccccc1CNC(=O)c1oc2ccc3c(c2c1C)C(=O)CC(C)(C)O3,inactive: 0.514%
4,Cc1ccc2oc(-c3ccc(C)c(NC(=O)c4ccc(-c5ccccc5[N+](=O)[O-])o4)c3)nc2c1,inactive: -0.971%
5,CCOc1ccc(S(=O)(=O)N(CC(=O)Nc2ccc3c(c2)OCO3)c2ccc(C)cc2)cc1,inactive: 10.7%
6,COC(=O)c1ccc2nc(C)cc(Nc3cccc(Cl)c3C)c2c1,inactive: -19.5%
7,COCC(=O)Nc1c(C(=O)Nc2ccc(C)cc2)oc2ccccc12,inactive: 2.23%
8,Cc1ccc(NC(c2nnc(-c3ccccc3)o2)c2ccccc2F)c(Cl)c1 (stereo not given),inactive: -11.7%
9,CCN(CC)S(=O)(=O)c1ccc(N2CCCCS2(=O)=O)cc1,inactive: 0%
10,Cc1ccc(CNC(=O)CN2C(=O)CCc3cc(S(=O)(=O)N4CCCCC4)ccc32)cc1,inactive: 0%
11,CCn1cc(S(=O)(=O)c2ccc(Cl)cc2)c(=O)c2cc(F)c(N3CCOCC3)cc21,inactive: -7.03%
12,COc1cc(CN(C(=O)c2ccc(Cl)cc2)C2CCS(=O)(=O)C2)cc(OC)c1OC (stereo not given),inactive: 4.75%
13,CCOC(=O)c1ccc(-c2ccc(/C=C(\C#N)C(=O)Nc3ccc(C)cc3)o2)cc1,inactive: 5.44%
14,COc1cccc(C(=O)n2nc(-c3cccnc3)nc2NCc2ccc(F)cc2)c1,inactive: 8.24%
15,CCN(CC)CCSc1nnc2c3cc(F)ccc3n(CC)c2n1,inactive: -19.9%
16,Cc1ccc(CCNC(=O)CCn2nc(-c3ccc(C)cc3)ccc2=O)cc1,inactive: -19.5%
17,COC(=O)c1ccc2c(=O)n(CCCCCC(=O)N3CCN(c4ccc(Cl)cc4)CC3)c(=O)[nH]c2c1,inactive: -1.55%
18,COc1ccccc1CNC(=O)Cn1c(=O)nc(-c2ccccc2)c2ccccc21,inactive: 0%
19,CCCSc1nnc2c(n1)OC(c1cccs1)Nc1ccc(Br)cc1-2 (stereo not given),inactive: -1.35%
20,COC(=O)c1ccc(NC(=O)CN(Cc2ccccc2)S(=O)(=O)c2ccc(Cl)cc2)cc1,inactive: 2.22%
21,Cc1c(Cl)cccc1NC(=O)Nc1ccc2snnc2c1,inactive: 0.128%
22,Oc1c(C(c2ccccc2F)N2CCCC2)sc2nc(-c3ccco3)nn12 (stereo not given),inactive: -0.327%
23,O=C(NCCc1ccccc1)c1ccc(CS(=O)(=O)c2ccc(Cl)cc2)o1,inactive: -7.31%
24,CCCOc1ccccc1C1C(C(=O)Nc2ccccc2)=C(C)Nc2nnnn21 (stereo not given),inactive: 5.18%

row,Compound,"activity change, negative = inhibition"
1,CCc1ccc(N(CC)C(=O)Cn2cnc3sc(C)c(S(=O)(=O)N4CCN(c5ncccn5)CC4)c3c2=O)cc1,inactive: 5.33%
2,Cc1cccc(S(=O)(=O)c2cn(C)c3cc(N4CCC(C)CC4)c(F)cc3c2=O)c1,inactive: -4.61%
3,CCC(=O)N1c2ccc(S(=O)(=O)CCC(=O)NCc3cccc(OC)c3)cc2CC1C (stereo not given),inactive: -1.12%
4,CC(=O)Nc1ccc(NC(=O)c2cc(-c3ccc4c(c3)OCCO4)on2)cc1,inactive: -7.33%
5,Cc1cccc(CSc2ccc(-c3cccs3)nn2)c1,inactive: -7.09%
6,O=C(NCc1ccccc1Cl)c1nnc(Cc2ccc(Cl)cc2)o1,inactive: 4.48%
7,COc1ccc(-c2noc(CSc3nnc(C)n3-c3ccc(C)c(C)c3)n2)c(OC)c1,inactive: 8.03%
8,COc1ccc(-c2nc(SCC(=O)NCCc3ccccc3)n[nH]2)cc1,inactive: 2.81%
9,Cc1ccc2onc(CC(=O)N3CCN(c4ccccc4)CC3)c2c1,inactive: -6.97%
10,CCOc1ccc(NC(=O)C(C)n2c(=O)cc(C)c3c(C)nn(-c4ccccc4)c32)cc1 (stereo not given),inactive: -0.682%
11,CCc1ccc(OCC(=O)Nc2ccc3c(c2)c2ccccc2n3CC)c(Br)c1,inactive: 0.0252%
12,N#C/C(=C\c1cc(Br)c(O)c(Br)c1)c1nc2ccccc2c(=O)[nH]1,inactive: 2.78%
13,CCc1ccc(NC(=O)CSc2ncc(S(=O)(=O)c3cc(C)ccc3C)c(=O)[nH]2)cc1,inactive: -0.0149%
14,COc1ccc(CC(=O)NC2CC(=O)N(c3ccc(C)c(C)c3)C2)cc1OC (stereo not given),inactive: 4.13%
15,O=C(Cn1c(=O)oc2cc(S(=O)(=O)N3CCCCC3)ccc21)NCc1ccc(F)cc1,inactive: -1.58%
16,CC1CCN(c2nc3ccc(C(=O)NCCc4ccc(S(N)(=O)=O)cc4)cc3s2)CC1,inactive: 3.65%
17,Cc1cccc2sc(N(Cc3cccnc3)C(=O)C3COc4ccccc4O3)nc12 (stereo not given),inactive: 0.929%
18,COc1ccc(-c2nc(Cn3c(SCc4ccccc4F)nc4cccnc43)c(C)o2)cc1,inactive: 0%
19,Cc1ccc(CNC(=O)CN2C(=O)C3(SCC(=O)N3c3ccc(F)c(F)c3)c3ccccc32)cc1 (stereo not given),inactive: 8.72%
20,CCOC(=O)C(Cc1ccccc1)NC(=O)CCc1c(C)nc2c(c(C)nn2-c2ccc(C)c(C)c2)c1C (stereo not given),inactive: -9.49%
21,COC(=O)c1ccccc1NC(=O)C1CCCN(c2nnc(C)c3c(C)n(-c4ccccc4)nc23)C1 (stereo not given),inactive: -6.3%
22,COC(=O)c1c(NC(=O)c2ccc(S(=O)(=O)N(C)C3CCCCC3)cc2)sc2c1CCN(C)C2,inactive: -5.46%
23,O=C(CN1C(=O)CCc2cc(S(=O)(=O)N3CCCCC3)ccc21)NCc1ccc(Cl)cc1,inactive: 13.2%
24,Cc1ccc(C)c(N2CCN(C(=O)CS(=O)(=O)c3cccc4nsnc34)CC2)c1,inactive: -6.06%

row,Compound,"activity change, negative = inhibition"
1,COc1ccc(OCC(=O)NCC(c2ccc(OC)cc2)N2CCOCC2)cc1 (stereo not given),inactive: -0.986%
2,Cc1cc(NC(=O)c2cnc3c(-c4ccccc4)c(C)nn3c2C)ccc1Br,inactive: -3.42%
3,Cc1cc(NC(=O)C(C)(C)C)cc(-c2nc3ncccc3o2)c1O,inactive: -5.42%
4,Cc1cccc(N2CCN(C(=O)CN3C(=O)COc4ccc(S(=O)(=O)N5CCCC5)cc43)CC2C)c1 (stereo not given),inactive: -4.62%
5,CCn1c(SCC(=O)c2ccccc2)nnc1-c1cccc(Cl)c1,inactive: 0.247%
6,CCc1c(CN2CCN(c3ccccc3F)CC2)csc1C,inactive: -5.97%
7,Cc1ccc(/C=C/c2onc(C)c2S(=O)(=O)N2CCC(C(=O)NCc3ccc(OC(C)C)cc3)CC2)cc1,inactive: 0.654%
8,Cc1ccc(CNC(=O)c2ccccc2NC(=O)c2nsc3ccccc23)cc1,inactive: 2.45%
9,COc1cccc(CNCCSc2nnnn2-c2ccccc2)c1OC,inactive: -1.38%
10,COc1ccc(-c2c(C)c3ccc(O)c(CN4CCCC4)c3oc2=O)cc1,inactive: -2.31%
11,Cc1nnc(C)n1-c1ccc(C(=O)Nc2cccc(Br)c2)cc1,inactive: -1.38%
12,Cc1c(Cl)cccc1NC(=O)CCCn1nc(C)c2sc3ccccc3c2c1=O,inactive: -4.97%
13,COc1cccc(N2CCN(c3c4c(nc5nncn35)CCC4)CC2)c1,inactive: -6.87%
14,Cc1cccc(Cn2cc3c(=O)n(CC(=O)Nc4c(C)cccc4C)nc-3c3cc(F)ccc32)c1,inactive: 0.506%
15,CC(C)Sc1nc2sc3c(c2c(=O)n1Cc1ccccc1)CCCC3,inactive: 2.11%
16,COC(=O)c1cc2oc3ccccc3c2n1Cc1nc(-c2ccccc2Cl)oc1C,inactive: 1.57%
17,CC1(C)CC(=O)c2cc(-c3nc(-c4ccccc4)cs3)c(=O)[nH]c2C1,inactive: -0.549%
18,Cc1ccc(NC(=O)C2CCN(S(=O)(=O)c3c(C)noc3C)CC2)cc1,inactive: 0.664%
19,COc1ccc(Nc2nc(-c3cccc(Cl)c3)c3c(n2)-c2ccccc2OC3)cc1,inactive: 2.46%
20,CCOc1ccccc1CNC(=O)Cc1ccc(NC(=O)N2CCCCc3ccccc32)cc1,inactive: -4.18%
21,CCOc1ccc(NC(=O)CSc2nc3ccsc3c(=O)n2C(C)CC)cc1 (stereo not given),inactive: -7.61%
22,CCOc1ccc(CCNC(=O)CCc2c(C)nc3c(c(C)nn3-c3ccc(C)c(C)c3)c2C)cc1,inactive: -0.294%
23,COc1ccc(-c2noc(N3CCC(C(=O)N4CCN(c5ccccc5OC)CC4)CC3)n2)cc1,inactive: 11.9%

# — PubChem BioAssay AID493208 (National Center for Advancing Translational Sciences (NCATS), 2011)
